# Data reported in PubChem BioAssay AID624296 (National Center for Advancing Translational Sciences (NCATS), 2012).
# Values joined by “and” are separate entries in the source; they are usually repeats but may differ in a detail not shown here. Equal entries are not always repeated. Out of some 350,000 compounds screened, about 9,900 (2.8%) were called active. This list was built around the results that the source calls inconclusive (neither active nor inactive); the mix of calls is not that of the screen. Calls follow the shape of the dose curve; as a rule, active = well fitted activation curve with a large enough effect; inconclusive = small, poorly fitted or top-dose-only effect; inactive = no such curve, though single readings can be large or run the other way. Potencies of inconclusive entries are doubtful fits and often do not repeat.
# Test: A quantitative high throughput screen for small molecules that induce DNA re-replication in MCF 10a normal breast cells. Also: nearly all actives have a fitted effect of over 50% in size. As to activity, positive = re-replication: % of control where 0% means no effect.
# Settings: MCF 10A DNA re-replication, Hoechst nuclear intensity, 48 h; activity, positive = re-replication: at 46.1 µM (top of the series)
# From the text: H Molecular Libraries Probe Production Network [MLPCN]
# NIH Chemical Genomics Center [NCGC]
# Assay Provider: Melvin DePamphilis, NICHD, NIH
# Eukaryotic cells normally restrict genome duplication to once per cell division. When this process is aberrant, DNA re-replication occurs when cells reinitiate DNA replication before the first round of replication is complete. DNA re-replication induces the DNA damage response, arrests cell proliferation, and triggers apoptosis. The cell cycle components cyclin A, Cdt-1, Cdc6 and geminin are critical regulators of this process and their misregulation results in DNA re-replication in normal and cancer cells. To identify compounds that induce re-replication in normal cells, an image-based assay was used to measure DNA content of nuclei, as detected by the fluorescent DNA binding dye, Hoechst. Cell nuclei were imaged by a fluorescence scanning plate imager and compounds that induce DNA re-replication were identified by the increase of nuclei with elevated fluorescence intensity
# For screening, 250 cells in 5 uL/well were dispensed into black clear 1536-well plates (Aurora) using a solenoid-based dispenser. Following transfer of 23 nL compound or DMSO vehicle by a pin tool, the plates were incubated 48 hr at 37 C and 5% CO2. After addition of 1 uL/well Hoescht stain, the plates were incubated 40 min at 37 C, 5% CO2 and total intensity of fluorescent objects (nuclei) were enumerated by an Acumen Explorer Ex3 (TTP LabTech) fluorescence scanning plate imager (405 nm excitation, 500-530 nm emission).
# Keywords: NIH Roadmap, MLPCN, MLI, MLSMR, qHTS, NCGC, DNA replication, cancer
# Potency is read from the fitted curve at half-maximal effect; tags tell the direction and shape of the fitted curve.
SMILES,Potency,"activity, positive = re-replication"
Cc1ccc(NC(=O)C2C3CCCC2C3c2ccccc2)c(C)c1 (stereo unspecified),"inconclusive: 7.31 µM [activator, partial curve, poor fit]",–
COC(=O)C1=C(N)Oc2cc(C)oc(=O)c2C12C(=O)Nc1ccccc12 (stereo unspecified),"inconclusive: 29.1 µM [activator, single point]",–
C=C1C(=O)OC2C1CCC(C)C1(O)C=CC(=O)C21C (stereo unspecified),"inconclusive: 1.84 µM [activator, full curve]",–
C[C@H]1COC2=C1C(=O)C(=O)c1c2ccc2c1CCCC2(C)C,active: 18.4 µM,–
C=Cn1ccnc1P(=S)(c1cc(N(CC)CC)ns1)c1nccn1C=C,"inconclusive: 0.0058 µM [activator, full curve, poor fit]",–
O=C(NN=Cc1ccc(N(CCCl)CCCl)cc1Cl)c1cccnc1,–,inactive: 18.1%
CC(C)COC(=O)OCN1C(=O)CN(CCN2CC(=O)N(COC(=O)OCC(C)C)C(=O)C2)CC1=O,"inconclusive: 23.7 µM [activator, partial curve, poor fit]",–
C[N+](C)(C)CC1CCCc2ccccc2C1=O (stereo unspecified),active: 13 µM,–
NC(=S)c1cn(C2OC(CO)C(O)C2O)c2ncnc(N)c12 (stereo unspecified),"inconclusive: 0.366 µM [activator, full curve, poor fit]",–
Cc1ccc(-c2cc(-c3ccccc3)cc(-c3ccccc3)[n+]2-c2ccccc2)cc1,active: 23.1 µM,–
CCCCCn1c(=O)c(C(=O)Nc2ccccn2)c(O)c2ccccc21,–,inactive: -4.11%
Cn1c(=O)oc2cc(S(=O)(=O)N3CCc4ccccc43)ccc21,"inconclusive: 14.6 µM [activator, partial curve, poor fit]",–
CCN(CC)C(=O)c1c(C)[nH]c(=S)c(C#N)c1-c1ccco1,"inconclusive: 23.1 µM [activator, single point]",–
CN1[C@@H]2CC[C@H]1CC(OC(=O)C1C=Nc3ccccc31)C2 (stereo partly specified),"inconclusive: 0.092 µM [activator, full curve, poor fit]",–
COC(=O)C1=C(c2ccc(F)cc2OCc2ccccc2)C[C@@H]2CC[C@H]1N2C(=O)NCCc1ccc(F)cc1,"inconclusive: 16.4 µM [activator, single point]",–
O=c1[nH]c(=O)n(CCc2ccccc2)c(O)c1C=NCc1ccc2c(c1)OCO2,–,inactive: 7.5%
CN1C(=O)CC(=O)N(c2ccccc2)c2cc(Cl)ccc21,–,inactive: 4.44%
CN1C(=O)N(C)C(=O)C2(Cc3cc([N+](=O)[O-])ccc3N(C)C2)C1=O,–,inactive: -1.16%
COc1ccc(CC2NCC(O)C2OC(C)=O)cc1 (stereo unspecified),"inconclusive: 0.0058 µM [activator, full curve, poor fit]",–
CCc1nc2ccccc2c(=O)n1-c1ccccc1[N+](=O)[O-],"inconclusive: 0.517 µM [activator, partial curve, poor fit]",–
CC(=O)Nc1ccc(S(=O)(=O)N2CCSC2c2ccc(C)cc2)cc1 (stereo unspecified),"inconclusive: 29.1 µM [activator, single point]",–
CCOc1ccc(N=Cc2c(O)n(C(C)(C)C)c(=O)[nH]c2=O)cc1,"inconclusive: 32.6 µM [activator, partial curve, poor fit]",–

SMILES,Potency,"activity, positive = re-replication"
CCC(=NCC1CCCO1)c1c(O)n(-c2ccccc2C)c(=O)[nH]c1=O (stereo unspecified),"inconclusive: 20.6 µM [activator, single point]",–
CN1C(=O)/C(=C\c2ccc(N3CCCCC3)o2)C(=O)NC1=S,–,inactive: 5.1%
Oc1ccc(Cl)cc1Cc1cc(Cl)ccc1O,active: 5.17 µM,–
Cc1cccc(N=C2c3cc([N+](=O)[O-])ccc3-c3c2cc([N+](=O)[O-])cc3[N+](=O)[O-])c1,active: 18.4 µM,–
CN1C(=O)C(=Cc2ccc(OCCN(C)c3ccccn3)cc2)C(=O)N(C)C1=O,active: 0.411 µM,–
COc1cc(CN2C(=O)NC(=O)C3(Cc4cc(C)ccc4N(C)C3)C2=O)cc(OC)c1 (stereo unspecified),"inconclusive: 29.1 µM [activator, single point]",–
O=C([O-])c1ccc(-[n+]2c(-c3ccccc3)cc(-c3ccccc3)cc2-c2ccccc2)cc1,–,inactive: 19.9%
O=C(N=Nc1c(O)[nH]c(=O)[nH]c1=O)C1COc2ccccc2O1 (stereo unspecified),"inconclusive: 0.164 µM [activator, full curve, poor fit]",–
COc1cccc(NP(=O)(Oc2ccccc2Cl)Oc2ccccc2Cl)c1,"inconclusive: 29.1 µM [activator, single point]",–
COC(=O)C1=C(c2ccc3ccccc3c2)C[C@@H]2CC[C@H]1N2C(=O)N1CCC(C)CC1,"inconclusive: 29.1 µM [activator, single point]",–
COc1ccc(-n2c(/C=C/c3cccc(F)c3)nc3ccccc3c2=O)c(OC)c1,–,inactive: 5.05%
CN(C)C(=O)Oc1c(Cl)cc(Cl)c2ccccc12,"inconclusive: 2.06 µM [activator, full curve, poor fit]",–
COc1ccc2c(c1)C(c1ccc(N(CCCl)CCCl)cc1)=NCC2,active: 13 µM,–
O=C1CC(c2cccnc2)=NN1c1ccc(Cl)cc1Cl,"inconclusive: 25.9 µM [activator, single point]",–
CC(C)COP(=O)(c1ccc(N(C)C)cc1)C(Nc1ccccc1)c1cccnc1 (stereo unspecified),"inconclusive: 29.1 µM [activator, single point]",–
O=C(Cc1ccccc1)N1CCN(Cc2ccc([N+](=O)[O-])cc2)CC1,–,inactive: 3.47%
CCN(CC)S(=O)(=O)c1ccc(C)c(NCC(=O)Nc2ccc(C#N)c(Cl)c2)c1,"inconclusive: 20.6 µM [activator, single point]",–
CN(C)CCC=C1c2ccccc2CCc2ccccc21,"inconclusive: 29.1 µM [activator, single point]",–
Cc1ccnc2c1NC(=O)c1cccnc1N2C1CC1,"inactive and inconclusive: 18.4 µM [activator, single point]",–
CC(=O)c1ccc2c(c1)C1C(Cl)C(Sc3ccccc3[N+](=O)[O-])CC1C(c1ccccc1[N+](=O)[O-])N2 (stereo unspecified),–,inactive: 1.58%
OC1(c2ccccc2F)CC2CCC(C1)N2CCN1CCOCC1 (stereo unspecified),"inconclusive: 3.98 µM [activator, partial curve, poor fit]",–
CC(C)c1ccc(OCC(=O)N2CCN(C)CC2)c(Br)c1,"inconclusive: 29.1 µM [activator, single point]",–

SMILES,Potency,"activity, positive = re-replication"
CC(C)NS(=O)(=O)c1ccc(OCC(=O)N2CCN(Cc3ccc4c(c3)OCO4)CC2)c(Cl)c1,–,inactive: 27.9%
COc1cccc(-n2c(/C=C/c3ccc(O)c(O)c3)nc3ccccc3c2=O)c1,active: 18.4 µM,–
O=S(=O)(c1ccccc1C(F)(F)F)N1CCN(c2ncnc3sccc23)CC1,"inconclusive: 25.9 µM [activator, single point]",–
Cc1cc(C)c(C(=O)N2CCC3(CC2)OCCO3)c(C)c1,–,inactive: 0.115%
CCc1ccc(CN2CCCC(C(=O)c3sccc3C)C2)o1 (stereo unspecified),"inconclusive: 32.6 µM [activator, single point]",–
CC(=O)O[C@H]1C[C@@H]2CC[C@@H]3[C@H](CC[C@]4(C)C(=O)CC[C@@H]34)[C@@]2(C)C[C@@H]1OC(C)=O,–,inactive: -5.84%
C[C@]12CCC(=O)C=C1CC[C@@H]1[C@@H]2CC[C@]2(C)C(=O)CC[C@@H]12,"inconclusive: 33.5 µM [activator, single point] and inconclusive: 23.1 µM [activator, single point]",–
CC(=O)OC(C)(C)/C=C/C(=O)C(C)(O)C1[C@H](O)C[C@@]2(C)C3CC=C4C(CC[C@@H](O)C4(C)C)[C@]3(CO)C(=O)C[C@]12C (stereo partly specified),"inconclusive: 0.184 µM [activator, full curve, poor fit]",–
COc1ccc(CCn2c(O)c(/C=N/NC(=O)c3ccncc3)c(=O)[nH]c2=O)cc1OC,–,inactive: 1.96%
S=c1[nH]nc(-c2ccco2)n1Cc1ccccc1,"inconclusive: 23.1 µM [activator, single point]",–
CCCCOc1ccc(CCN)cc1Cl,"inconclusive: 29.1 µM [activator, single point]",–
CN(C)CCNC(=O)c1cccn(Cc2cccc(C(F)(F)F)c2)c1=O,"inconclusive: 32.6 µM [activator, single point]",–
CC(C)OCCCNC(=O)c1c(N)n(Cc2cccs2)c2nc3ccccc3nc12,active: 1.84 µM,–
COc1ccc(/C=N/NC(=O)c2cccc([N+](=O)[O-])c2)cc1OC,"inconclusive: 0.0046 µM [activator, full curve, poor fit]",–
COc1ccccc1N1C(=O)NC(=O)/C(=C\c2cnn(-c3ccccc3)c2)C1=O,"inconclusive: 20.6 µM [activator, single point]",–
COc1ccc(N2C(=O)CC(N3CCC(n4c(=O)[nH]c5ccccc54)CC3)C2=O)cc1 (stereo unspecified),–,inactive: 24.9%
CCOc1c(Cl)cc(CNC(C)C(O)c2ccccc2)cc1OC (stereo unspecified),"inconclusive: 29.1 µM [activator, partial curve, poor fit]",–
C=CCNC(=O)c1c(N)n(CCN2CCOCC2)c2nc3ccccc3nc12,active: 5.8 µM,–
NC(=O)OCCCc1ccccc1,"inactive and inconclusive: 116 nM [activator, full curve, poor fit]",–
CC[C@H]1CN2CCc3cc(OC)c(OC)cc3[C@H]2C[C@@H]1C[C@@H]1NCCc2cc(OC)c(OC)cc21,–,inactive: 33.5%
C[C@]12CC[C@H]3C(=CCc4cc(O)ccc43)[C@@H]1CCC2=O,"inconclusive: 0.0052 µM [activator, full curve, poor fit]",–
O=C1NC(=O)N(CCC2=CCCCC2)C(=O)/C1=C\c1cccs1,"inconclusive: 18.4 µM [activator, single point]",–
